Results as given in PubChem BioAssay AID1476 (National Center for Advancing Translational Sciences (NCATS), 2009).
Hit rate of the full screen: of about 200,000 compounds, about 4,500 (2.2%) were called active. Inconclusive results, whose numbers are uncertain, are shown with a selection of clear calls. Calls come from the whole dose curve; as a rule, active = well fitted inhibition curve with a large enough effect; inconclusive = small, poorly fitted or top-dose-only effect, or effect the other way; inactive = flat fitted curve, though single readings scatter. A potency beside an inconclusive call is a rough fit, not a confirmed value.

What follows are compounds tested against Cruzipain (Trypanosoma cruzi) (UniProt P25779) (assay: qHTS Assay for Promiscuous and Specific Inhibitors of Cruzain (without detergent)). Conditions: purified cruzain, Z-FR-AMC fluorescence, no detergent.
UniProt P25779, sequence (P25779 whole entry, looked up): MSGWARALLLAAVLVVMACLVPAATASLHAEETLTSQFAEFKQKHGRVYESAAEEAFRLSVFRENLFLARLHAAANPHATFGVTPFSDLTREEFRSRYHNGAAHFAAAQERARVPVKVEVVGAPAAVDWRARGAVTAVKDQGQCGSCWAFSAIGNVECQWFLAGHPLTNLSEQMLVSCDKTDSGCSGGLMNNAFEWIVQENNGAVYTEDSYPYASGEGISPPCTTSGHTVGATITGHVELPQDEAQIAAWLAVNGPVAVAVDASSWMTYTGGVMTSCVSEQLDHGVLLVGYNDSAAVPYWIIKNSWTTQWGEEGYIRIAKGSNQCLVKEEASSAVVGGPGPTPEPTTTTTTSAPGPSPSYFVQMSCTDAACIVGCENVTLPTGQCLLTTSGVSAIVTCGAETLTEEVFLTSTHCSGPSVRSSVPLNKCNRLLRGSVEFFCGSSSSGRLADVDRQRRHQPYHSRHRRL
Method in brief: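 Purified cruzain at 1.5 nM, pre-incubated 15 min with compound at room temperature in 100 mM sodium acetate pH 5.5, 5 mM DTT, 0.00005% Triton X-100. Reaction started with 2 uM Z-FR-AMC; AMC fluorescence increase over 60 s gives rate.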
Note: nearly all actives have a fitted effect of over 40% in size.
Potency is the fitted concentration of half-maximal effect; tags give direction and shape of the fitted curve.
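Throughout, for max response, negative = inhibition: plate controls were enzyme without inhibitor for no effect and buffer without enzyme for full effect.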

| Compound | Potency | max response, negative = inhibition |
| --- | --- | --- |
| COC(=O)c1ccc(-c2ccc(/C=N/N3C(=O)C4C5C=CC(C6CC56)C4C3=O)o2)cc1 (stereo not given) | inconclusive: 15.8 µM [inhibitor, partial curve] | – |
| COc1ccc(OC)c(NC(=O)CCC(=O)Nc2nnc(C(F)(F)F)s2)c1 | inconclusive: 25.1 µM [inhibitor, single point] | – |
| O=C(c1cc2c(s1)-c1ccccc1OC2)N1CCN(c2ccccc2)CC1 | inconclusive: 39.8 µM [inhibitor, single point] | – |
| O=C1CSC(c2cn(-c3ccccc3)nc2-c2cccs2)N1CC1CCCO1 (stereo not given) | inconclusive: 31.6 µM [activator, single point] | – |
| O=C(N=C1c2ccccc2CN1c1ccc(F)c(Cl)c1)c1cccnc1Cl | inconclusive: 39.8 µM [inhibitor, single point] | – |
| CCc1nn(C(CC)C(=O)NCc2ccc(F)cc2)c(=O)c2cc3occc3n12 (stereo not given) | – | inactive: -9.19% |
| O=S(=O)(NCC(c1ccco1)N1CCOCC1)c1cc(F)ccc1F (stereo not given) | – | inactive: -1.04% |
| Cc1cc(C)cc(NC(=O)C2CCCN(C(=O)c3cnn(-c4ccccc4)c3-n3cccc3)C2)c1 (stereo not given) | inconclusive: 25.1 µM [activator, partial curve] | – |
| O=C(c1ccc2nc(N3CCOCC3)sc2c1)N1CCC(Cc2ccccc2)CC1 | inconclusive: 39.8 µM [activator, single point] | – |
| O=C(CSc1nc2c([nH]c3ccccc32)c(=O)n1-c1ccc(Cl)cc1)N1CCOCC1 | – | inactive: 12.2% |
| O=C(CNS(=O)(=O)c1ccccc1)OCC(=O)c1ccc(OC(=O)c2ccccc2)cc1 | inconclusive: 0.0398 µM [activator, full curve, poor fit] | – |
| O=c1[nH]c(=O)c2nc(Br)n(C3OC(CO)C(O)C3O)c2[nH]1 (stereo not given) | – | inactive: 0.743% |
| O=C(NC1CCCc2ccccc21)c1cccc(S(=O)(=O)N2CCN(c3ccccc3)CC2)c1 (stereo not given) | inconclusive: 31.6 µM [inhibitor, single point] | – |
| CCC1=C2CC[C@H]3C(=O)N(C)C(=O)[C@H]3[C@H]2[C@@]2(C)C(=O)N(CC3CC3)C(=O)N2C1=O | – | inactive: -2.82% |
| Cc1cc(C)c(NC(=O)Cn2nnc(-c3ccccc3)n2)c(C)c1 | – | inactive: -0.167% |
| C=C(C)Cn1c(SCC(=O)O)nnc1-c1ccc(C(C)(C)C)cc1 | inconclusive: 20 µM [activator, single point] | – |
| NC(=NCc1ccc(Cl)c(Cl)c1)NC(=O)c1nc(Cl)c(N)nc1N | inconclusive: 7.94 µM [inhibitor, single point] | – |
| CCOc1ccccc1NC(=O)Cn1c(=O)n(Cc2ccccc2)c(=O)c2cccnc21 | – | inactive: -7.56% |
| Cc1cc(C(C)c2ccccc2)c(O)c(CN2CCOCC2)c1C (stereo not given) | – | inactive: 21.8% |
| Cc1ccc(Cn2nnnc2CN2CCC(O)(c3ccccc3F)CC2)cc1 | inconclusive: 39.8 µM [activator, single point] | – |
| CCC(=O)Nc1ccc(CC)cc1-c1nc2ccccc2n(Cc2ccccc2)c1=O | – | inactive: 7.49% |
| COc1cc(/C=N/n2nnnc2Nc2ccccc2)cc(OC)c1OC | inconclusive: 39.8 µM [activator, single point] | – |

| Compound | Potency | max response, negative = inhibition |
| --- | --- | --- |
| Cc1nn(C)cc1C(C(=O)NC1CCCCC1)N(C(=O)Cc1cccs1)c1ccc(F)cc1 (stereo not given) | inconclusive: 39.8 µM [inhibitor, single point] | – |
| Cc1c(Cc2ccccc2)c(=O)oc2c(C)c(OCC(=O)Nc3ccc(C#N)cc3)ccc12 | active: 12.6 µM | – |
| COc1ccc(-c2c3c(nc4sc5c(=O)[nH]c(C)nc5c24)CCC3)cc1 | – | inactive: -27% |
| Cc1ccc(-n2ncc(C(=O)NCCc3c[nH]c4ccccc34)c2C2CCN(C(=O)OC(C)(C)C)CC2)cc1C | – | inactive: -15% |
| Cc1cccc(N2C(=O)CC(NNc3nc4ccccc4s3)C2=O)c1 (stereo not given) | – | inactive: -0.175% |
| COc1ccc(C2c3cc(OC)c(OC)cc3CCN2C2CC(=O)N(c3ccccc3)C2=O)cc1OC (stereo not given) | inconclusive: 31.6 µM [activator, single point] | – |
| COc1cc(-c2noc(CCC(=O)Nc3cc(C)ccc3C)n2)cc(OC)c1OC | inconclusive: 31.6 µM [activator, single point] | – |
| COC(=O)c1ccc(Cl)c(-c2ccc(/C=N/NC(=O)Nc3ccccc3)o2)c1 | inconclusive: 39.8 µM [inhibitor, single point] | – |
| CC(=O)Nc1ccc(NC(=O)CSc2nc3ccccc3nc2N2CCC(C)CC2)cc1 | inconclusive: 25.1 µM [activator, single point] | – |
| O=C(Nc1ccc(Cl)cc1)Nc1nnc(CSCc2ccccc2)s1 | inconclusive: 15.8 µM [inhibitor, single point] | – |
| COc1ccc(CNC(=O)CN2C(=O)CSc3ccc(S(=O)(=O)N4CCOCC4)cc32)c(OC)c1 | – | inactive: 4.74% |
| CN(C)c1ccc(-c2nc(-n3ccnc3)c3ccccc3n2)cc1 | inconclusive: 31.6 µM [inhibitor, single point] | – |
| Cc1ccc(C2=NN(CC(=O)NCCC(C)C)C(=O)CC2)cc1 | inconclusive: 1.26 µM [inhibitor, single point] | – |
| O=C(NC1CC1)c1cc(-c2ccccn2)nc2ccccc12 | – | inactive: 3.83% |
| COc1ccc(S(=O)(=O)NCC(c2ccco2)S(=O)(=O)c2cccs2)cc1C (stereo not given) | – | inactive: 11.6% |
| Cn1c(=O)n(C)c2cc(S(=O)(=O)N3CCOCC3)ccc21 | – | inactive: -4.7% |
| COC(=O)c1ccc(/C=C2/SC(=S)N(CCCC(=O)Nc3ccccn3)C2=O)cc1 | inconclusive: 39.8 µM [inhibitor, single point] | – |
| CCOc1cc(N2CCOCC2)c(OCC)cc1NC(=O)Cc1cccc(OC)c1 | inconclusive: 25.1 µM [activator, single point] | – |
| Cc1cc(N2CCC(C(=O)N3CCN(c4cccc(C)c4C)CC3)CC2)n2ncnc2n1 | inconclusive: 25.1 µM [activator, single point] | – |
| O=C(Nc1cccc(NC(=O)c2ccc(-c3cccc(Br)c3)o2)c1)c1ccco1 | inconclusive: 39.8 µM [inhibitor, single point] | – |
| CCOc1ccc(CNC(=O)c2ccc3nc(C(C)C)oc3c2)cc1 | – | inactive: -11% |
| COC(=O)c1ccc(NC(=O)NCCn2nnc3cc(S(=O)(=O)N(C)C)ccc32)cc1 | – | inactive: -17.2% |

| Compound | Potency | max response, negative = inhibition |
| --- | --- | --- |
| CC(C)[C@@H]1[C@H]2CC[C@H](C2)[C@H]1N | – | inactive: 4.15% |
| COc1ccc(/C=N/NC(=O)COc2ccccc2-c2ccccc2)cc1 | – | inactive: 6.62% |
| COC(=O)C1=C(C)NC(C)=C(C(=O)OC)C1c1ccccc1[N+](=O)[O-] | – | inactive: 3.78% [middle of 6 runs] |
| CCOC(=O)C(/C=C(\C#N)C(=O)OCC)=C(/N)N1CCN(c2ccc(Cl)cc2)CC1 | inconclusive: 25.1 µM [activator, partial curve] | – |
| CCCCCCCCCCCCCCCCCCOC[C@H](COP(=O)([O-])OCC[N+](C)(C)C)OC | inconclusive: 39.8 µM [activator, single point] | – |
| Cc1ccc(CNC(=O)[C@H](C)[C@@H]2C[C@@]2(C)[C@@H](NC(=O)OCc2ccccc2)c2ccccc2)c(F)c1F | inconclusive: 39.8 µM [inhibitor, single point] | – |
| COc1ccc(C(=O)Nc2cc(=O)n(C)c(=O)n2C)cc1OC | – | inactive: -14.3% |
| Cc1ccc(C)c(OCC(=O)Nc2ccc3c(c2)OCO3)c1 | inconclusive: 3.98 µM [inhibitor, single point] | – |
| COc1ccc(OC)c(NS(=O)(=O)c2ccc(NC(C)=O)cc2)c1 | inconclusive: 39.8 µM [inhibitor, single point] | – |
| COCCCNC(=O)c1c(NC(=O)c2ccco2)n(Cc2ccccc2)c2nc3ccccc3nc12 | inconclusive: 25.1 µM [activator, partial curve] | – |
| CC(=O)Nc1ccc(Nc2cc(C)nc3c(-c4ccccc4)c(C)nn23)cc1 | inconclusive: 39.8 µM [activator, single point] | – |
| CC(C)c1ccc(C(=O)Nc2cc(-c3ccccc3F)nn2-c2ccccc2)cc1 | inconclusive: 31.6 µM [inhibitor, single point] | – |
| CCN(C(=O)c1coc(=O)c2ccccc12)c1ccccc1C | – | inactive: -4.16% |
| Cc1ccccc1CN1C(=O)c2ccccc2Sc2ccc(C(=O)N3CCCC3)cc21 | inconclusive: 25.1 µM [activator, single point] | – |
| CC(=O)Cc1nsc(NC(=O)c2c(-c3ccccc3Cl)noc2C)n1 | – | inactive: 4.17% |
| COc1ccc(C)cc1-n1nnc(-c2nc(-c3ccccc3Cl)no2)c1N | inconclusive: 39.8 µM [inhibitor, single point] | – |
| COc1ccc(OC)c(C2CC(c3c(-c4ccccc4)c4cc(Cl)ccc4[nH]c3=O)=NN2S(C)(=O)=O)c1 (stereo not given) | inconclusive: 25.1 µM [activator, partial curve] | – |
| Cc1ccc(C(=O)c2cnc3cc4c(cc3c2S(=O)(=O)c2ccccc2)OCCO4)cc1 | inconclusive: 25.1 µM [inhibitor, single point] | – |
| COc1cc(OC)c(C(=O)OC(C)C(=O)Nc2cc(C(F)(F)F)ccc2Cl)cc1OC (stereo not given) | inconclusive: 39.8 µM [activator, single point] | – |
| CC(C)CSc1ncnc2c1oc1nc3c(cc12)COC(C)(C)C3 | inconclusive: 39.8 µM [activator, single point] | – |
| Cc1cccc(C(=O)N2CCc3cc(CNS(=O)(=O)c4ccc(Cl)s4)ccc32)c1 | inconclusive: 39.8 µM [inhibitor, single point] | – |
